# Assay results from the supplement of paper PMC4604168 (melanoma cell lines).
# This is one part of the list. Repeats are few or missing, and single values can be far off.
# Key:
# Assay in all cases: cell count relative to DMSO control; melanoma cells; higher = more viable cells
# Details in all cases: library dose: standard library concentration; 72 h
# G361 = tested on: G361
# IPC-298 = tested on: IPC-298
# IST-MEL1 = tested on: IST-MEL1
# LB2518-MEL = tested on: LB2518-MEL
# LOXIMVI = tested on: LOXIMVI
# MEL-HO = tested on: MEL-HO
# MZ2-MEL = tested on: MZ2-MEL
# MeWo = tested on: MeWo
# RPMI7951 = tested on: RPMI7951
# RVH-421 = tested on: RVH-421
# SkMel28 = tested on: SkMel28
# SkMel2 = tested on: SkMel2
# SkMel30 = tested on: SkMel30
# SkMel5 = tested on: SkMel5
# UACC257 = tested on: UACC257
# UACC62 = tested on: UACC62
# WM115 = tested on: WM115
# WM1716 = tested on: WM1716
# WM1745 = tested on: WM1745
# WM3526 = tested on: WM3526
# 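Note: cells treated in 1,536-well plates, then fixed and DAPI-stained, with nuclei counted from automated high-throughput microscope images.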
SMILES,cell count (G361),cell count (IPC-298),cell count (IST-MEL1),cell count (LB2518-MEL),cell count (LOXIMVI),cell count (MEL-HO),cell count (MZ2-MEL),cell count (MeWo),cell count (RPMI7951),cell count (RVH-421),cell count (SkMel28),cell count (SkMel2),cell count (SkMel30),cell count (SkMel5),cell count (UACC257),cell count (UACC62),cell count (WM115),cell count (WM1716),cell count (WM1745),cell count (WM3526)
"Cc1ccc(NC(=O)c2cccc(N(C)C)c2)cc1NC(=O)c1ccc(O)cc1 + CCN(CC)CCCCNc1ncc2cc(-c3cc(OC)cc(OC)c3)c(NC(=O)NC(C)(C)C)nc2n1 [PD173074] (first compound 10 µM, partner dose 0.5 µM)",97.8%,93.2%,92.9%,100%,100%,80.7%,85.8%,89.5%,75%,86.6%,91%,91.1%,87.4%,77.7%,88.1%,110%,99.1%,125%,88.7%,90.1%
"CN(NC(=O)CC(=O)NN(C)C(=S)c1ccccc1)C(=S)c1ccccc1 + CCN(CC)CCCCNc1ncc2cc(-c3cc(OC)cc(OC)c3)c(NC(=O)NC(C)(C)C)nc2n1 [PD173074] (first compound 0.03 µM, partner dose 0.5 µM)",50.6%,78.6%,52%,36.4%,76.3%,91.5%,83.4%,16.4%,87.6%,71.9%,28.9%,76.7%,78.6%,34.3%,95.7%,49.4%,20.4%,86.3%,17.3%,76.2%
"CC(C)(C)c1cnc(CSc2cnc(NC(=O)C3CCNCC3)s2)o1 + O=c1cc(-c2cccc3c2Sc2ccccc2S3)oc(N2CCOCC2)c1 [KU55933] (first compound 0.05 µM, partner dose 5 µM)",77.3%,91.4%,94.6%,85.9%,93.1%,84.4%,85.5%,79.3%,38%,79.5%,63.8%,70.5%,89.6%,68.2%,88.3%,63%,91%,75.4%,90.4%,66.8%
"COc1cc2c(Oc3ccc4[nH]c(C)cc4c3F)ncnc2cc1OCCCN1CCCC1 [cediranib] + O=S(=O)(c1ccccc1)N(CC(F)(F)F)c1ccc(C(O)(C(F)(F)F)C(F)(F)F)cc1 [T0901317] (first compound 2 µM, partner dose 7 µM)",77.7%,82.3%,101%,106%,44.7%,89.8%,95.2%,80.9%,60.4%,88.6%,79.7%,84.7%,91.8%,70.9%,80.2%,66.7%,101%,74%,64.2%,81.6%
"CN(NC(=O)CC(=O)NN(C)C(=S)c1ccccc1)C(=S)c1ccccc1 + Oc1nc(-c2ccc(C(F)(F)F)cc2)nc2c1CSCC2 [XAV939] (first compound 0.03 µM, partner dose 10 µM)",24.2%,56.1%,31.6%,17.8%,70.3%,68.4%,109%,8.77%,67%,83.9%,10.8%,55.6%,82.2%,44.1%,76.8%,32.5%,20.4%,46.4%,29.2%,84.4%
"Cc1ccc(NC(=O)c2cccc(N(C)C)c2)cc1NC(=O)c1ccc(O)cc1 + NCC(=O)Nc1ccc(-n2nc(C(F)(F)F)cc2-c2ccc3c(ccc4ccccc43)c2)cc1 [OSU03012] (first compound 10 µM, partner dose 5 µM)",47.7%,45.5%,73.3%,59.5%,91.1%,66%,50.3%,82.2%,77.4%,55.6%,23.7%,36.3%,27.1%,52.4%,71.1%,58.2%,73.9%,85.6%,57%,41.7%
"NC(=O)c1ccc(N(C(N)=O)c2c(F)cccc2F)nc1-c1ccc(F)cc1F + O=C(Nc1cccc(Cl)c1)Nc1ncc(CCNc2ncnc3ccsc23)s1 [SNS314] (first compound 2 µM, partner dose 0.004 µM)",58.3%,87.7%,41.8%,84.4%,72.4%,75.3%,80.4%,51.8%,60.6%,95.5%,39.4%,80%,92.2%,72.7%,79.2%,65.7%,38.6%,43.2%,70.6%,65.2%
"CCc1ccc(CCOc2ccc(CC3SC(=O)NC3=O)cc2)nc1 (stereo not given) [pioglitazone] + COC(=O)c1sccc1S(=O)(=O)Nc1ccc(Nc2ccccc2)cc1OC [GSK0660] (first compound 10 µM, partner dose 5 µM)",109%,98.5%,98.5%,164%,112%,91.5%,99.2%,97.4%,73.6%,100%,78.1%,110%,110%,106%,96.6%,119%,97.4%,96.1%,97.9%,98.2%
"NC(=O)c1ccc(N(C(N)=O)c2c(F)cccc2F)nc1-c1ccc(F)cc1F + CS(=O)(=O)CCNCc1ccc(-c2ccc3ncnc(Nc4ccc(OCc5cccc(F)c5)c(Cl)c4)c3c2)o1 [lapatinib] (first compound 2 µM, partner dose 4 µM)",84.1%,105%,88.2%,93.4%,115%,80.3%,81.5%,71.8%,64.9%,75%,93.8%,71.3%,84.1%,76.6%,101%,51.6%,96.3%,91.6%,73%,77.4%
"CN(NC(=O)CC(=O)NN(C)C(=S)c1ccccc1)C(=S)c1ccccc1 + Oc1cc(-c2nc(-c3ccccc3)[nH]c2-c2ccncc2)ccc1Cl [L779450] (first compound 0.03 µM, partner dose 1 µM)",25%,76.9%,47.3%,22.3%,100%,77.7%,113%,18.9%,91.5%,41.4%,2.87%,13.7%,90.5%,66%,92.2%,18.9%,23.3%,62.6%,24.3%,58.1%
"CCc1ccc(CCOc2ccc(CC3SC(=O)NC3=O)cc2)nc1 (stereo not given) [pioglitazone] + O=C1NC(=O)/C(=C/c2ccc(-c3ccc(F)cc3O)o2)S1 [AS252424] (first compound 10 µM, partner dose 5 µM)",87.3%,79.7%,105%,84.5%,109%,82.9%,82.1%,101%,102%,111%,84%,85.4%,100%,86.4%,85.4%,98.5%,81.6%,79.6%,72.3%,84.6%
"CC(C)(C)c1cnc(CSc2cnc(NC(=O)C3CCNCC3)s2)o1 + CCc1ccc(CCOc2ccc(CC3SC(=O)NC3=O)cc2)nc1 [pioglitazone] (first compound 0.05 µM, partner dose 10 µM)",115%,94.9%,95.9%,95.7%,79.2%,94.6%,88.5%,108%,19.7%,87.3%,47.1%,79.2%,98.6%,72.2%,95.7%,72.9%,97.8%,84.5%,76.5%,104%
"COc1cc2c(Oc3ccc4[nH]c(C)cc4c3F)ncnc2cc1OCCCN1CCCC1 [cediranib] + Oc1nc(-c2ccc(C(F)(F)F)cc2)nc2c1CSCC2 [XAV939] (first compound 2 µM, partner dose 10 µM)",78.9%,94.3%,99.1%,109%,91.2%,91.2%,89.3%,85.5%,72.5%,93.4%,83.1%,99%,93.5%,88%,79.3%,100%,95.4%,78.1%,69.2%,96.8%
"NC(=O)c1ccc(N(C(N)=O)c2c(F)cccc2F)nc1-c1ccc(F)cc1F + Nc1nc(F)nc2c1ncn2[C@@H]1O[C@H](CO)[C@@H](O)[C@@H]1O [fludarabine] (first compound 2 µM, partner dose 1 µM)",86.5%,91.7%,68.8%,90.1%,114%,79.3%,121%,92.4%,60.6%,71.6%,3.11%,1.28%,22.7%,33.4%,36.5%,72.7%,96.4%,114%,74.8%,26.1%
"NC(=O)c1ccc(N(C(N)=O)c2c(F)cccc2F)nc1-c1ccc(F)cc1F + C[C@]1(c2nc3c(C(N)=O)cccc3[nH]2)CCCN1 [Veliparib] (first compound 2 µM, partner dose 7 µM)",80.8%,89.6%,90.4%,77.2%,80.7%,85.7%,75.5%,77.7%,85.8%,90.9%,68.9%,84.2%,89.3%,59.7%,94.3%,51.9%,63.9%,100%,81%,75.6%
"CCCCCCCCc1ccc(CCC(N)(CO)CO)cc1 [fingolimod] + Cn1c(Nc2ccc(C(F)(F)F)cc2)nc2cc(Oc3ccnc(-c4ncc(C(F)(F)F)[nH]4)c3)ccc21 [CHIR265] (first compound 10 µM, partner dose 0.4 µM)",1.17%,29.1%,8.06%,0.211%,11%,6.24%,1.33%,45.3%,3.01%,5.84%,8.65%,0.0928%,11.7%,29.8%,83.9%,8.76%,12%,39.8%,4.34%,36.1%
"CCc1ccc(CCOc2ccc(CC3SC(=O)NC3=O)cc2)nc1 (stereo not given) [pioglitazone] + O=S(=O)(c1ccccc1)N(CC(F)(F)F)c1ccc(C(O)(C(F)(F)F)C(F)(F)F)cc1 [T0901317] (first compound 10 µM, partner dose 7 µM)",66.6%,83.7%,95.5%,86.8%,103%,77.4%,92.5%,78.9%,83.2%,106%,69.4%,86.5%,84.8%,70.8%,78.7%,81.5%,83.1%,2.57%,64.2%,72.1%
